Laboratory results from PubChem BioAssay AID1671188 (National Center for Advancing Translational Sciences (NCATS), 2021).
Among all 100,000 compounds or so, about 250 (0.25%) were called active. This list was built around the results that the source calls inconclusive (neither active nor inactive); the mix of calls is not that of the screen. The call rests on the fitted dose curve; in most records, active means well fitted inhibition curve with a large enough effect; inconclusive means small, poorly fitted or top-dose-only effect; inactive means flat fitted curve, though single readings scatter. Potencies of inconclusive entries are left out as doubtful fits.

Each compound was assayed against Alanine aminotransferase 2 (Homo sapiens) (UniProt Q8TD30) (assay: Primary qHTS assay for inhibitors of Glutamate pyruvate transaminase 2 (GPT2)). Details: Recombinant GPT2, coupled pyruvate oxidase/HRP Amplex Red fluorescence; activity change, negative = inhibition: at 57.7 µM (top of the series) unless noted; series mostly up to 57.7 µM.
Method: Assay Provider: Zhenghe John Wang Ph.D.
Case Western Reserve University, Cleveland OH
Glutamate pyruvate transaminase 2 (GPT2) catalyzes the reversible transamination of glutamate and pyruvate to provide a-ketoglutarate and alanine. We have optimized an assay for GPT2 enzymatic activity that couples pyruvate formation to detection of fluorescence using an established pyruvate oxidase/horseradish peroxidase / Amplex Red system.
Screening conditions were 250uM a-KG, 2mM L-alanine, and 10ng/uL GPT2 in […] of solution; 10uL of Amplex reaction mix (outlined below) were added so that final concentrations of Amplex reagents in 50uL were 0.2mM ThPP, 0.2U/mL PO and HRP, and 50uM Amplex.
NOTE: The volume of GPT2 in the system depends on the activity of it. The activity is different every batch. You need to test the activity before the assay. For full plate assay with automation, plate 20uL of GPT2 buffer to pin into, then add 10uL of GPT2 dilution followed immediately by 10uL of substrate dilution. 2 Columns of the plate were devoted to GPT2 buffer ([…] PH7.5, 0.0001% Tween) + 50uM AOA (known GPT2 inhibitor) to serve as a positive control. Complete the assay as normal. Amplex-red buffer: […] PH7.5, 1 mM EDTA, 1 mM MgCl2.
1. Combine a-KG and L-alanine at desired concentrations and incubate for at least 10 minutes at 37C. Stocks of L-alanine and a-KG are diluted in distilled water. However, the stocks were diluted in GPT2 buffer for the assay.
2. Prepare GPT2 dilution at the desired concentration in GPT2 buffer.
3. Plate 40uL of GPT2 dilution with 40uL of substrate dilution and let incubate for 30 minutes at room temperature.
4. Add 20uL of Amplex reaction mix prepared as follows: 1.5uL 200U/mL Horseradish Peroxidase, 200mM Thiamine Pyrophosphate, 200U/mL Pyruvate Oxidase; 7.5uL 10mM Amplex Red; 288uL Amplex Buffer.
5. Incubate for 30 minutes at room temperature in the dark, then image using AM_Amplex_Fluorescence on plate reader nearest the window.
Further: nearly all actives have a fitted effect of over 60% in size.
On the % scale 0 is the no-effect control and ±100 the full control effect; potency means the concentration at half of the fitted maximal effect; tags describe the fitted curve by direction and shape.

UniProt Q8TD30, sequence (Q8TD30 whole entry, looked up): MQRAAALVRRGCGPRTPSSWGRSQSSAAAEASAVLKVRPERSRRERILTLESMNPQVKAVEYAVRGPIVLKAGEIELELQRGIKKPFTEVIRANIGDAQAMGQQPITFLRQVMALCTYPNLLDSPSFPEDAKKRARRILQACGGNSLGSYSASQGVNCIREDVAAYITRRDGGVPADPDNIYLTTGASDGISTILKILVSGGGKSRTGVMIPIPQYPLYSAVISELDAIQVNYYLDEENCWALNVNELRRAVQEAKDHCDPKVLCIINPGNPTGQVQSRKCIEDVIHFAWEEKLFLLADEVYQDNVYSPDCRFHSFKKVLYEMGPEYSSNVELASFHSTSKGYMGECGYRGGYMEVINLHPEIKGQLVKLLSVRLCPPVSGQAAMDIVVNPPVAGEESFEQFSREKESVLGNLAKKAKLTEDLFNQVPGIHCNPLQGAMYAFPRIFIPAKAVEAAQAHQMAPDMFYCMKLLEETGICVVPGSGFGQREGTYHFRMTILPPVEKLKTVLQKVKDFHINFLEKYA

Row | Structure (SMILES) | outcome | Potency | activity change, negative = inhibition
1 | Cc1noc(C)c1Cn1cc2c3c(cccc31)[C@H](CC(C)C)N[C@H](C(=O)NCCN(C)C)C2 | inactive | – | –
2 | Cc1nn2c(c1-c1ccccc1-c1ccccc1)N(C(=O)Cc1ccc3c(c1)OCO3)CCC2 | – | inconclusive [inhibitor, partial curve, poor fit] | –
3 | CCCN1CCN(c2ccc(C(=O)N(C)Cc3ccc4ccccc4n3)cn2)CC1 | – | inconclusive [inhibitor, single point] | –
4 | Cc1nc2cccnc2n1CC1CCCN(S(=O)(=O)c2ccc3c(c2)CCCC3)C1 (centres undefined) | inactive | – | –
5 | COc1cc(Cl)ccc1C(=O)N1[C@@H]2CC[C@H]1CC(NC(=O)c1ccncc1)C2 (some centres undefined) | – | inconclusive [inhibitor, single point] | –
6 | OC[C@@H]1CNC[C@H]1C1CCN(Cc2ccc(Cl)c(F)c2)CC1 | inactive | – | –
7 | COC(=O)CNC(=O)C1CCN(c2nccc(Nc3ccccc3Cl)n2)CC1 | – | inconclusive [inhibitor, full curve, poor fit] | –
8 | CCCc1nc(C)c2c(=O)[nH]c(-c3cc(S(=O)(=O)N4CCN(CC)CC4)ccc3OCC)nn12 | – | inconclusive [inhibitor, single point] | –
9 | c1cnc(-c2nc(Cn3cc(C4CCOC4)nn3)cs2)nc1 (centres undefined) | – | inconclusive [inhibitor, single point] | –
10 | Cc1ccc(S(=O)(=O)N2CCCC(CCC(=O)NC3CCS(=O)(=O)C3)C2)cc1 (centres undefined) | – | inconclusive [inhibitor, single point] | –
11 | OCC1(O)CCN(C2CCN(c3ccc4c(c3)OCO4)CC2)CC1 | – | inconclusive [inhibitor, full curve, poor fit] | –
12 | O=C(N[C@@H]1CN(C(=O)Nc2cccc(C(F)(F)F)c2)CCC[C@H]1O)c1ccc(OCc2ccccc2)cc1 | – | – | inactive: -9.47%
13 | C[C@@H](NC(=O)C1=C[C@@H](NC(=O)Nc2ccc(OC(F)(F)F)cc2)[C@@H](O)[C@H](O)C1)C(N)=O | – | inconclusive [inhibitor, partial curve, poor fit] | –
14 | CC1CCC2(CC1)NC(=O)N(CC(=O)Nc1ccc(Cl)cc1C(F)(F)F)C2=O (centres undefined) | – | inconclusive [inhibitor, single point] | –
15 | COCCNC(=O)[C@@H]1C[C@H](Oc2cccnc2)CN1C(=O)c1cc2ccccc2[nH]1 | – | – | inactive: 4.51%
16 | O=C(Cc1cccc(F)c1)N1CCCN(c2cc(-c3ccc(Cl)cc3)[nH]n2)CC1 | – | inconclusive [inhibitor, partial curve] | –
17 | CCc1nc(-c2c3n(c(=O)n(Cc4ccccc4F)c2=O)CCCC3)no1 | – | inconclusive [inhibitor, full curve, poor fit] | –
18 | Cc1cccc(OC[C@H]2C[C@@H](NCc3c(C)noc3C)[C@H](O)[C@@H]2O)n1 | – | inconclusive [inhibitor, single point] | –
19 | COc1ccc(-c2cc(C(=O)NCc3ccc(F)cc3)c3cnn(C)c3n2)cc1 | – | – | inactive: -1.35%
20 | CCNC(=O)N1CCCCC1c1nc(CCOCC2CCCC2)no1 (centres undefined) | – | inconclusive [inhibitor, single point] | –
21 | O=C(N[C@H]1CCN2C(=O)[C@@H](Cc3c[nH]c4ccccc34)NC(=O)[C@H]12)c1cnccn1 | – | inconclusive [inhibitor, full curve, poor fit] | –
22 | O=C(c1ccccn1)N1CCC(Nc2cccnc2)C1 (centres undefined) | – | inconclusive [inhibitor, partial curve, poor fit] | –

Row | Structure (SMILES) | outcome | Potency | activity change, negative = inhibition
23 | COc1ccccc1-c1nnc2n1C(C(=O)NCc1ccc(F)cc1)CC2 (centres undefined) | – | inconclusive [inhibitor, full curve, poor fit] | –
24 | Nc1cccn2nc(-c3cccnc3)nc12 | – | inconclusive [inhibitor, partial curve] | –
25 | COCCNc1ncc(-c2ccc(O)c(OC)c2)c2c1OCC2 | – | inconclusive [inhibitor, full curve, poor fit] | –
26 | Cc1ncsc1CN1CCC2(CC1)CC(Cc1nc(-c3ccccc3)no1)CCO2 (centres undefined) | – | inconclusive [inhibitor, full curve, poor fit] | –
27 | CN(Cc1ccccc1)C(=O)c1ccc2c(c1)NC(C)(COc1cccnc1)CO2 (centres undefined) | – | – | inactive: -3.42% [at 88.5 µM]
28 | Cc1nc(CCNS(=O)(=O)c2ccc3c(c2)OCCO3)no1 | – | inconclusive [inhibitor, single point] | –
29 | CC(C)Oc1ccc(CN2CC(C(=O)NCc3ccncc3)C3(CCOCC3)C2)cc1 (centres undefined) | – | inconclusive [inhibitor, single point] | –
30 | O=C(Cc1ccccc1F)Nc1ccc2c(c1)CN(C(=O)[C@H]1CCCN1)CC2 | – | – | inactive: 3.22%
31 | O=C(NCc1ccc(Oc2ccccc2)cc1)c1nc(-c2cc(Br)c(O)c(Br)c2)no1 | – | inconclusive [inhibitor, single point] | –
32 | COc1ccccc1CNC(=O)c1cc2n(n1)CC(c1ccc(Cl)cc1)OC2 (centres undefined) | inactive | – | –
33 | CS(=O)c1ccc(-c2nc(-c3ccc(F)cc3)c(-c3ccncc3)[nH]2)cc1 (centres undefined) | – | inactive | –
34 | Cc1nc2c(c(-c3ccc(O)cc3)n1)CN(Cc1cccn1C)CCC2 | – | inconclusive [inhibitor, single point] | –
35 | O=C(c1cccnc1)N1CC[C@H](c2nc3ccccc3s2)C1 | – | – | inactive: -0.0557% [at 88.5 µM]
36 | COc1ccc(-c2cc(N3CCCC(NC(=O)c4ccc(F)cc4F)C3)n[nH]2)cc1 (centres undefined) | – | inconclusive [inhibitor, single point] | –
37 | O=C(Cc1ccc(F)cc1)N1CCC2(CC1)NC(=O)N(c1ccccc1Cl)N2 | – | inconclusive [inhibitor, single point] | –
38 | CCCC1=Nc2cc(C(=O)NCCCN3CCCCC3CC)ccc2Sc2ccc(C)cc21 (centres undefined) | – | – | inactive: -11.2%
39 | COc1cccc(CN2CC3(C2)C(=O)N(Cc2ccccc2Cl)C(=O)[C@@H]2C[C@@H](O)CN23)c1 | – | inconclusive [inhibitor, single point] | –
40 | COc1cccc(-c2nc(-c3c(C)noc3C)cc3c2cc(C)n3CCN(C)C)c1OC | – | inconclusive [inhibitor, single point] | –
41 | Cc1ccc(C)c(S(=O)(=O)N2CCN(C3CCN(CCc4ccccc4)C3=O)CC2)c1 (centres undefined) | – | inconclusive [inhibitor, partial curve, poor fit] | –
42 | CNC(=O)[C@@H]1CN(C(=O)C2CC=CCC2)C[C@H]1c1nc(COC)no1 (some centres undefined) | – | inconclusive [inhibitor, single point] | –
43 | O=C(NCC1CC1)c1ccc2oc(-c3cccnc3)nc2c1 | – | inconclusive [inhibitor, single point] | –
44 | Cc1ncccc1OC1(C(=O)O)CCN(C(=O)c2cccc(F)c2)CC1 | – | inconclusive [inhibitor, single point] | –

Row | Structure (SMILES) | outcome | Potency | activity change, negative = inhibition
45 | CC(=O)NCCc1ncc(C)n1C1CCCCCC1 | – | inconclusive [inhibitor, single point] | –
46 | COc1ccc(CN2CCC3(CC2)CNC(=O)c2ccccc2O3)cc1 | – | inconclusive [inhibitor, single point] | –
47 | COc1ccc(C(=O)N2C[C@@H](F)[C@@H](OCc3nc4ccccc4o3)C2)cc1 | – | – | inactive: -12.5% [at 88.5 µM]
48 | NC(=O)CNC(=O)c1cc2c(s1)CCN(C(=O)c1ccc(Cl)cc1)C2 | – | inconclusive [inhibitor, full curve, poor fit] | –
49 | COc1ccc(-n2nc(C3CCCN(C(=O)Nc4ccccc4)C3)[nH]c2=O)cc1 (centres undefined) | – | inconclusive [inhibitor, single point] | –
50 | O=C(c1cc2n(n1)CC(c1ccc(Cl)cc1)OC2)N1CCN(c2ccc(F)cc2)CC1 (centres undefined) | inactive | – | –
51 | CC(C)CN1C(=O)c2cccn2CC1C(=O)NCCCN1CCOCC1 (centres undefined) | – | – | inactive: 3.73%
52 | CCN1C(=O)C2CC3(CCN(C(=O)c4c[nH]c5ccccc45)CC3)CN2C1=O (centres undefined) | – | inconclusive [inhibitor, single point] | –
53 | CN1CC(=O)N(c2ccccc2F)Cc2c(NCc3ccc(F)cc3)ncnc21 | – | inconclusive [inhibitor, single point] | –
54 | CCNc1nc2c(ncn2[C@H]2C[C@H](O)[C@@H](CO)O2)c(=O)[nH]1 | – | inconclusive [inhibitor, single point] | –
55 | COc1ccc(-c2nc(-c3c(C)noc3C)cc3cc(CN(C)C)oc23)cn1 | – | – | inactive: 2.39% [at 88.5 µM]
56 | O=c1n(-c2ccc(Cl)cc2)nc2n1CCN(Cc1ccsc1)C2 | inactive | – | –
57 | CCCN(C)CC1(O)CCC2(CCN(C(=O)C3CCCC3)CC2)CC1 | – | – | inactive: 2.61%
58 | Cc1cn2nc(C(=O)N3CCC(NC(=O)c4ccc(F)c(F)c4)CC3)cc2c(=O)[nH]1 | – | inconclusive [inhibitor, single point] | –
59 | CN1CCCN(Cc2ccc3c(c2)OCO3)c2ccccc21 | – | inconclusive [inhibitor, full curve, poor fit] | –
60 | CC(C)=CCC1(CO)CCCN(C(=O)CN2CCCC2=O)C1 (centres undefined) | – | inconclusive [inhibitor, full curve] | –
61 | COc1ccccc1-c1ccc2ncc(Nc3ccc4c(c3)OCO4)n2n1 | – | inconclusive [inhibitor, full curve, poor fit] | –
62 | O=C1NCCOCCCN(C(=O)Nc2ccccc2)[C@H]2CCCC[C@@H]12 | – | inconclusive [inhibitor, single point] | –
63 | Cn1nc(-c2nncn2Cc2ccccc2)c2c1CCN(C(=O)CCC(=O)N1CCOCC1)C2 | – | inconclusive [inhibitor, single point] | –
64 | O=C(c1[nH]nc2c1CCc1ccccc1-2)N1CCC(c2noc(-c3ccncc3)n2)C1 (centres undefined) | inactive | – | –
